# In the supplement of paper PMC8728848:
# The list shows a part of the results.
# B1: Banana lectin (Musa acuminata) (protein)
# chain: MNGAIKVGAWGGNGGSAFDMGPAYRIISVKIFSGDVVDGVDVTFTYYGKTETRHYGGSGGTPHEIVLQEGEYLVGMAGEVANYTGAVVLGKLGFSTNKKAYGPFGNTGGTPFSLPIAAGKISGFFGRGGKFLDAIGVYLEPLEHHHHHH
# What was measured:
# Experiment in all cases: glycan array binding signal (z-score within array); higher = stronger binding
# Conditions in all cases: glycan notation: IUPAC condensed, linker removed; mutation: H84T
# [1] = target: GlcNAc(b1-4)GlcNAc(b1-4)GlcNAc(b1-4)GlcNAc(b1-4)GlcNAc
# In short: (§1)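 The Consortium for Functional Glycomics database supplied 3228 glycan arrays, of which those lacking an available protein sequence were dropped. The binding signal, a within-array Z-score, was averaged across arrays of the same protein sequence and across linkers. Negative scores can be read as non-binding.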
# [2] = target: GlcNAc(b1-4)GlcNAc(b1-4)GlcNAc(b1-4)GlcNAc(b1-4)GlcNAc(b1-4)GlcNAc
# In short: as §1
# [3] = target: GlcNAc(b1-4)[GlcNAc(b1-6)]GalNAc
# In short: as §1
# [4] = target: GlcNAc(b1-6)Gal(b1-4)GlcNAc
# In short: as §1
# GlcNAc(b1-6)GalNAc = target: GlcNAc(b1-6)GalNAc
# In short: as §1
# [5] = target: GlcNAc6S(b1-3)Gal(b1-4)GlcNAc
# In short: as §1
# Kdn(a2-3)Gal(b1-3)GalNAc = target: Kdn(a2-3)Gal(b1-3)GalNAc
# In short: as §1
# Kdn(a2-3)Gal(b1-3)GlcNAc = target: Kdn(a2-3)Gal(b1-3)GlcNAc
# In short: as §1
# Kdn(a2-3)Gal(b1-4)Glc = target: Kdn(a2-3)Gal(b1-4)Glc
# In short: as §1
# Kdn(a2-3)Gal(b1-4)GlcNAc = target: Kdn(a2-3)Gal(b1-4)GlcNAc
# In short: as §1
# [6] = target: Kdn(a2-3)Gal(b1-4)[Fuc(a1-3)]GlcNAc
# In short: as §1
# Kdn(a2-6)Gal(b1-4)GlcNAc = target: Kdn(a2-6)Gal(b1-4)GlcNAc
# In short: as §1
# [7] = target: Man(a1-2)Man(a1-2)Man(a1-3)Man
# In short: as §1
# [8] = target: Man(a1-2)Man(a1-2)Man(a1-6)[Man(a1-3)]Man
# In short: as §1
# Man(a1-2)Man(a1-3)Man = target: Man(a1-2)Man(a1-3)Man
# In short: as §1
# [9] = target: Man(a1-2)Man(a1-3)[Man(a1-2)Man(a1-6)]Man
# In short: as §1
# [10] = target: Man(a1-2)Man(a1-3)[Man(a1-2)Man(a1-6)]Man(a1-6)[Man(a1-2)Man(a1-2)Man(a1-3)]Man
# In short: as §1
# [11] = target: Man(a1-2)Man(a1-3)[Man(a1-2)Man(a1-6)]Man(a1-6)[Man(a1-2)Man(a1-2)Man(a1-3)]Man(b1-4)GlcNAc(b1-4)GlcNAc
# In short: as §1
# [12] = target: Man(a1-2)Man(a1-3)[Man(a1-6)]Man(a1-6)[Man(a1-2)Man(a1-3)]Man(b1-4)GlcNAc(b1-4)GlcNAc
# In short: as §1
# [13] = target: Man(a1-2)Man(a1-6)[Man(a1-3)]Man(a1-6)[Man(a1-2)Man(a1-2)Man(a1-3)]Man
# In short: as §1
# [14] = target: Man(a1-2)Man(a1-6)[Man(a1-3)]Man(a1-6)[Man(a1-2)Man(a1-2)Man(a1-3)]Man(b1-4)GlcNAc(b1-4)GlcNAc
# In short: as §1
# Man(a1-3)[Man(a1-6)]Man = target: Man(a1-3)[Man(a1-6)]Man
# In short: as §1
# [15] = target: Man(a1-3)[Man(a1-6)]Man(a1-6)[Man(a1-2)Man(a1-3)]Man(b1-4)GlcNAc(b1-4)GlcNAc
# In short: as §1
# [16] = target: Man(a1-3)[Man(a1-6)]Man(a1-6)[Man(a1-3)]Man
# In short: as §1
# [17] = target: Man(a1-3)[Man(a1-6)]Man(a1-6)[Man(a1-3)]Man(b1-4)GlcNAc(b1-4)GlcNAc
# In short: as §1
# [18] = target: Man(a1-3)[Man(a1-6)]Man(b1-4)GlcNAc(b1-4)GlcNAc
# In short: as §1
# [19] = target: Man(a1-3)[Man(a1-6)]Man(b1-4)GlcNAc(b1-4)[Fuc(a1-6)]GlcNAc
# In short: as §1
# Man(a1-6)Man = target: Man(a1-6)Man
# In short: as §1
# Man(b1-4)GlcNAc = target: Man(b1-4)GlcNAc
# In short: as §1
# MurNAc(b1-4)GlcNAc = target: MurNAc(b1-4)GlcNAc
# In short: as §1
# Neu5Ac(a2-3)Gal = target: Neu5Ac(a2-3)Gal
# In short: as §1
# [20] = target: Neu5Ac(a2-3)Gal(b1-3)GalNAc
# In short: as §1
# [21] = target: Neu5Ac(a2-3)Gal(b1-3)GalNAc(b1-3)Gal(a1-4)Gal(b1-4)Glc
# In short: as §1
# [22] = target: Neu5Ac(a2-3)Gal(b1-3)GalNAc(b1-4)Gal(b1-4)Glc
# In short: as §1
# [23] = target: Neu5Ac(a2-3)Gal(b1-3)GalNAc(b1-4)[Neu5Ac(a2-3)]Gal(b1-4)Glc
# In short: as §1
# [24] = target: Neu5Ac(a2-3)Gal(b1-3)GalNAc(b1-4)[Neu5Ac(a2-8)Neu5Ac(a2-3)]Gal(b1-4)Glc
# In short: as §1
# [25] = target: Neu5Ac(a2-3)Gal(b1-3)GalNAc6S
# In short: as §1
# [26] = target: Neu5Ac(a2-3)Gal(b1-3)GlcNAc
# In short: as §1
# [27] = target: Neu5Ac(a2-3)Gal(b1-3)GlcNAc(b1-2)Man
# In short: as §1
# [28] = target: Neu5Ac(a2-3)Gal(b1-3)GlcNAc(b1-2)Man(a1-3)[GlcNAc(b1-4)][Neu5Ac(a2-3)Gal(b1-3)GlcNAc(b1-2)Man(a1-6)]Man(b1-4)GlcNAc(b1-4)GlcNAc
# In short: as §1
# [29] = target: Neu5Ac(a2-3)Gal(b1-3)GlcNAc(b1-2)Man(a1-3)[Neu5Ac(a2-3)Gal(b1-3)GlcNAc(b1-2)Man(a1-6)]Man(b1-4)GlcNAc(b1-4)GlcNAc
# In short: as §1
# [30] = target: Neu5Ac(a2-3)Gal(b1-3)GlcNAc(b1-2)[Neu5Ac(a2-3)Gal(b1-3)GlcNAc(b1-4)]Man(a1-6)[Neu5Ac(a2-3)Gal(b1-3)GlcNAc(b1-2)Man(a1-3)]Man(b1-4)GlcNAc(b1-4)GlcNAc
# In short: as §1
# [31] = target: Neu5Ac(a2-3)Gal(b1-3)GlcNAc(b1-3)Gal(b1-3)GlcNAc
# In short: as §1
# [32] = target: Neu5Ac(a2-3)Gal(b1-3)GlcNAc(b1-3)Gal(b1-4)GlcNAc
# In short: as §1
# [33] = target: Neu5Ac(a2-3)Gal(b1-3)GlcNAc(b1-3)GalNAc
# In short: as §1
binder,measurement,setting,value
B1,glycan array binding signal (z-score),[1],-0.168
same,glycan array binding signal (z-score),[2],-0.17
same,glycan array binding signal (z-score),[3],-0.196
same,glycan array binding signal (z-score),[4],-0.187
same,glycan array binding signal (z-score),GlcNAc(b1-6)GalNAc,-0.202
same,glycan array binding signal (z-score),[5],-0.199
same,glycan array binding signal (z-score),Kdn(a2-3)Gal(b1-3)GalNAc,-0.176
same,glycan array binding signal (z-score),Kdn(a2-3)Gal(b1-3)GlcNAc,-0.117
same,glycan array binding signal (z-score),Kdn(a2-3)Gal(b1-4)Glc,-0.166
same,glycan array binding signal (z-score),Kdn(a2-3)Gal(b1-4)GlcNAc,-0.189
same,glycan array binding signal (z-score),[6],-0.194
same,glycan array binding signal (z-score),Kdn(a2-6)Gal(b1-4)GlcNAc,-0.179
same,glycan array binding signal (z-score),[7],0.713
same,glycan array binding signal (z-score),[8],8.2
same,glycan array binding signal (z-score),Man(a1-2)Man(a1-3)Man,1.68
same,glycan array binding signal (z-score),[9],2.21
same,glycan array binding signal (z-score),[10],7.07
same,glycan array binding signal (z-score),[11],5.46
same,glycan array binding signal (z-score),[12],4.86
same,glycan array binding signal (z-score),[13],5.72
same,glycan array binding signal (z-score),[14],10.1
same,glycan array binding signal (z-score),Man(a1-3)[Man(a1-6)]Man,6.01
same,glycan array binding signal (z-score),[15],11.3
same,glycan array binding signal (z-score),[16],-0.185
same,glycan array binding signal (z-score),[17],5.96
same,glycan array binding signal (z-score),[18],4.6
same,glycan array binding signal (z-score),[19],1.98
same,glycan array binding signal (z-score),Man(a1-6)Man,-0.153
same,glycan array binding signal (z-score),Man(b1-4)GlcNAc,-0.198
same,glycan array binding signal (z-score),MurNAc(b1-4)GlcNAc,-0.179
same,glycan array binding signal (z-score),Neu5Ac(a2-3)Gal,-0.212
same,glycan array binding signal (z-score),[20],-0.193
same,glycan array binding signal (z-score),[21],-0.151
same,glycan array binding signal (z-score),[22],-0.131
same,glycan array binding signal (z-score),[23],-0.192
same,glycan array binding signal (z-score),[24],-0.184
same,glycan array binding signal (z-score),[25],-0.156
same,glycan array binding signal (z-score),[26],-0.161
same,glycan array binding signal (z-score),[27],-0.207
same,glycan array binding signal (z-score),[28],-0.154
same,glycan array binding signal (z-score),[29],-0.212
same,glycan array binding signal (z-score),[30],0.018
same,glycan array binding signal (z-score),[31],-0.183
same,glycan array binding signal (z-score),[32],-0.183
same,glycan array binding signal (z-score),[33],-0.181
